Laboratory results published in the supplement of paper PMC8728848.
Some of the results follow.

What was measured:
Assay in all cases: glycan array binding signal (z-score within array); higher = stronger binding
Details in all cases: glycan notation: IUPAC condensed, linker removed
Fuc(a1-2)Gal = target: Fuc(a1-2)Gal
Summary of the method: (§1)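 Arrays were curated from the Consortium for Functional Glycomics database, 3228 in total, and kept only where the protein sequence was available. Binding is expressed as a within-array Z-score. This score was averaged across arrays of the same protein sequence at different concentrations or buffers and across linkers, and negative values can be read as non-binding.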

Fuc(a1-2)Gal(b1-3)GalNAc = target: Fuc(a1-2)Gal(b1-3)GalNAc
Summary of the method: as §1

[1] = target: Fuc(a1-2)Gal(b1-3)GalNAc(a1-3)[Fuc(a1-2)]Gal(b1-4)Glc
Summary of the method: as §1

[2] = target: Fuc(a1-2)Gal(b1-3)GalNAc(a1-3)[Fuc(a1-2)]Gal(b1-4)GlcNAc
Summary of the method: as §1

[3] = target: Fuc(a1-2)Gal(b1-3)GalNAc(b1-3)Gal
Summary of the method: as §1

[4] = target: Fuc(a1-2)Gal(b1-3)GalNAc(b1-3)Gal(a1-4)Gal(b1-4)Glc
Summary of the method: as §1

[5] = target: Fuc(a1-2)Gal(b1-3)GalNAc(b1-4)[Neu5Ac(a2-3)]Gal(b1-4)Glc
Summary of the method: as §1

Fuc(a1-2)Gal(b1-3)GlcNAc = target: Fuc(a1-2)Gal(b1-3)GlcNAc
Summary of the method: as §1

[6] = target: Fuc(a1-2)Gal(b1-3)GlcNAc(b1-2)Man(a1-3)[Fuc(a1-2)Gal(b1-3)GlcNAc(b1-2)Man(a1-6)]Man(b1-4)GlcNAc(b1-4)GlcNAc
Summary of the method: as §1

[7] = target: Fuc(a1-2)Gal(b1-3)GlcNAc(b1-2)Man(a1-3)[Fuc(a1-2)Gal(b1-3)GlcNAc(b1-2)Man(a1-6)]Man(b1-4)GlcNAc(b1-4)[Fuc(a1-6)]GlcNAc
Summary of the method: as §1

[8] = target: Fuc(a1-2)Gal(b1-3)GlcNAc(b1-3)Gal(b1-4)Glc
Summary of the method: as §1

[9] = target: Fuc(a1-2)Gal(b1-3)GlcNAc(b1-3)GalNAc
Summary of the method: as §1

[10] = target: Fuc(a1-2)Gal(b1-3)GlcNAc(b1-3)[Fuc(a1-2)Gal(b1-3)GlcNAc(b1-6)]GalNAc
Summary of the method: as §1

[11] = target: Fuc(a1-2)Gal(b1-3)GlcNAc(b1-3)[Gal(b1-4)GlcNAc(b1-6)]Gal(b1-4)Glc
Summary of the method: as §1

[12] = target: Fuc(a1-2)Gal(b1-3)GlcNAc(b1-3)[Neu5Ac(a2-6)Gal(b1-4)GlcNAc(b1-6)]Gal(b1-4)Glc
Summary of the method: as §1

[13] = target: Fuc(a1-2)Gal(b1-3)GlcNAc6S
Summary of the method: as §1

[14] = target: Fuc(a1-2)Gal(b1-3)[Fuc(a1-4)]GlcNAc
Summary of the method: as §1

[15] = target: Fuc(a1-2)Gal(b1-3)[Fuc(a1-4)]GlcNAc(b1-2)Man(a1-3)[Fuc(a1-2)Gal(b1-3)[Fuc(a1-4)]GlcNAc(b1-2)Man(a1-3)]Man(b1-4)GlcNAc(b1-4)GlcNAc
Summary of the method: as §1

[16] = target: Fuc(a1-2)Gal(b1-3)[Fuc(a1-4)]GlcNAc(b1-2)Man(a1-3)[Fuc(a1-2)Gal(b1-3)[Fuc(a1-4)]GlcNAc(b1-2)Man(a1-6)]Man(b1-4)GlcNAc(b1-4)[Fuc(a1-6)]GlcNAc(b1-4)[Fuc(a1-6)]GlcNAc
Summary of the method: as §1

[17] = target: Fuc(a1-2)Gal(b1-3)[Fuc(a1-4)]GlcNAc(b1-3)[Fuc(a1-3)[Gal(b1-4)]GlcNAc(b1-6)]Gal(b1-4)Glc
Summary of the method: as §1

[18] = target: Fuc(a1-2)Gal(b1-3)[Fuc(a1-4)]GlcNAc(b1-3)[Gal(b1-4)GlcNAc(b1-6)]Gal(b1-4)Glc
Summary of the method: as §1

Fuc(a1-2)Gal(b1-4)Glc = target: Fuc(a1-2)Gal(b1-4)Glc
Summary of the method: as §1

B1: Als3-2 (Candida albicans) (protein)
chain: KTITGVFNSFNSLTWSNAATYNYKGPGTPTWNAVLGWSLDGTSASPGDTFTLNMPCVFKFTTSQTSVDLTAHGVKYATCQFQAGEEFMTFSTLTCTVSNTLTPSIKALGTVTLPLAFNVGGTGSSVDLEDSKCFTAGTNTVTFNDGGKKISINVDFERSNVDPKGYLTD
How did the “glycan array binding signal (z-score)” value (Fuc(a1-2)Gal) turn out when B1 was run?
Its value is -0.54.

What about the “glycan array binding signal (z-score)” value (Fuc(a1-2)Gal(b1-3)GalNAc) of the same binder?
Its value is -0.486.

And the “glycan array binding signal (z-score)” value [1]?
Its value is -0.676.

What about the “glycan array binding signal (z-score)” value [2] of the same binder?
The value was -0.3.

What about the “glycan array binding signal (z-score)” value [3] of the same binder?
The value was 1.77.

And the “glycan array binding signal (z-score)” value [4]?
Its value is -0.284.

And the “glycan array binding signal (z-score)” value [5]?
Its value is -0.5.

What about the “glycan array binding signal (z-score)” value (Fuc(a1-2)Gal(b1-3)GlcNAc) of the same binder?
Its value is -0.264.

What about the “glycan array binding signal (z-score)” value [6] of the same binder?
Its value is 7.12.

What about the “glycan array binding signal (z-score)” value [7] of the same binder?
The value was -0.63.

What about the “glycan array binding signal (z-score)” value [8] of the same binder?
The value was -0.562.

What about the “glycan array binding signal (z-score)” value [9] of the same binder?
Its value is -0.63.

And the “glycan array binding signal (z-score)” value [10]?
The value was 2.86.

What about the “glycan array binding signal (z-score)” value [11] of the same binder?
The value was -0.553.

What about the “glycan array binding signal (z-score)” value [12] of the same binder?
Its value is -0.229.

What about the “glycan array binding signal (z-score)” value [13] of the same binder?
Its value is -0.516.

And the “glycan array binding signal (z-score)” value [14]?
The value was -0.734.

And the “glycan array binding signal (z-score)” value [15]?
Its value is 0.831.

What about the “glycan array binding signal (z-score)” value [16] of the same binder?
Its value is -0.415.

What about the “glycan array binding signal (z-score)” value [17] of the same binder?
Its value is -0.632.

And the “glycan array binding signal (z-score)” value [18]?
Its value is 0.876.

And the “glycan array binding signal (z-score)” value (Fuc(a1-2)Gal(b1-4)Glc)?
Its value is -0.655.
